This assay concerns the target T1, EC-FGF receptor (extracellular region of the human FGF receptor flg 5, amino acids 1-374, expressed in … (human, UniProt P11362 22-376, N-linked oligosaccharides (glycoprotein, Mr 58,000; sites not assigned)).
T1 construct: The N-terminus of the secreted protein was not determined; Purified on lentil lectin Sepharose; also called sFGF-R; soluble FGF-R
T1 sequence: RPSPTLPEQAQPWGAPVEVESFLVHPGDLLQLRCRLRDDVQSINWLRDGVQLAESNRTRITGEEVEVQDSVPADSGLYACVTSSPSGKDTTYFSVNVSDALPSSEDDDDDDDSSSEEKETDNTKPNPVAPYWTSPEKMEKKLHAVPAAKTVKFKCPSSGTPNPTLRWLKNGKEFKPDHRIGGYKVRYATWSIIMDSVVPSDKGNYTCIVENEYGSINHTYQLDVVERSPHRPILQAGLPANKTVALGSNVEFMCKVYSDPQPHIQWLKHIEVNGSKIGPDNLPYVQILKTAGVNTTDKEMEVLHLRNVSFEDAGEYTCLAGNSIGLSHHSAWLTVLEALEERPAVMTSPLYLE
The assay is described as follows: soluble binding assay: EC-FGF receptor on concanavalin A coated wells, 125I-bFGF with increasing concentrations of bFGF, Scatchard analysis. The protocol: The FGF binding properties of EC-FGF receptor was determined using a soluble binding assay (adapted from the assay described by J. E. Robinson et al, *J Immunol Meth* (1990) 132:63–71).

From patent US6844168 (CHIRON, dated 2005) come the findings set out here.

B1: Human basic FGF (recombinant, produced in yeast) (ligand)
chain: not shown
modifications: radioiodinated (125I) where used as tracer; residues not stated
notes: also called bFGF
For the molecule B1, the Kd (commonly the free concentration of one partner at which half of the binding sites on the other are occupied at equilibrium, for simple one-to-one binding) was below 5 nM.
